Screen size: about 150,000 compounds; about 540 (0.36%) showed an effect of 50% or more. The list shows a part of the results.

For the test, the system named is Plasmodium falciparum. The experiment in a line: Primary screen in NF54 nanoGlo assay, in single point, at 2uM, 72h; a lower Z score goes with more inhibition. The test is classed as functional, Erythrocyte. The settings on record: timepoint 72 hour.
For the compound `C[C@@H]1CN(C(=O)NCCCNc2cccnc2)C[C@H](C)O1`, the % Inhibition (usually the drop in the measured response relative to a control, in per cent) is -3% and the Z score was determined as 0.28.
`Cc1cccc(-c2nc(N)nc3c2CN(C(=O)c2cccc(N)c2)[C@H]3C)c1`: the “% Inhibition” value is 1% and the Z score was -0.07.
`Cc1nc(CN(C)C[C@H]2CCCCN2C)n(C)c1C`: the “% Inhibition” value turned out to be 4% and the Z score was -0.43.
The like results for `O=C(O)COc1ccc(Cl)cc1CN1CCc2[nH]nc(C(=O)O)c2C1` were, in that order, -28% and 2.79.
With `OCCN(CCO)c1ccc(C(c2ccccc2Cl)c2ccc(N(CCO)CCO)cc2Cl)c(Cl)c1`, the “% Inhibition” value is -9% and the Z score was determined as 1.44.
Turning to `COCCC1(c2noc(C3CCOCC3)n2)CCN(S(=O)(=O)N(C)C)CC1`, the “% Inhibition” value is reported as -16% and the Z score was 2.05.
The like results for `CCNC(=O)C[C@H]1CCCN1Cc1nc2ccccc2c(=O)[nH]1` were, in that order, 0% and -0.09.
As for `CCCCNC(=O)c1ccc(CN2C(=O)CCn3nc(-c4ccc(OC)cc4)cc32)cc1`, the “% Inhibition” value was 6% and the Z score is -0.73.
For `CCc1cc(CC)nc(NCc2ccc[nH]c2=O)n1`, in that order: -5% and 0.77.
For `CCCOc1ccc(CN(C)C)cc1C(=O)OC`, in that order: 11% and -1.47.
The like results for `O=C(CC[C@H]1CCCN(CCCn2cccn2)C1)N1CCN(c2ccccn2)CC1` were, in that order, 10% and -1.23.
`O=S(=O)(c1ccccc1)N1CCC(F)(c2nc(-c3ccncc3)no2)CC1`: the “% Inhibition” value is reported as -11% and the Z score was 1.54.
On to `Cc1ccccc1C(=O)Nc1c(C#N)c(-c2ccccc2)c(-c2ccccc2)n1Cc1ccccc1`, for which the “% Inhibition” value is -5% and the Z score is reported as 0.79.
As for `COc1cccc(C(=O)N(CC(=O)O)CC(C)(C)C)c1C`, the “% Inhibition” value stood at 2% and the Z score is listed as -0.26.
For `CC(=O)CCc1c(-c2ccc(C)cc2)c2ccccc2n1S(=O)(=O)c1ccc(C)cc1`, the “% Inhibition” value is -6% and the Z score was 0.68.
`Cc1nc(C2CCN(C(=O)[C@H]3C[C@@H]3CC(C)C)C2)n[nH]1` (stereo not given in full): the “% Inhibition” value is -4% and the Z score is listed as 0.54.
With `CN(C)C(=O)c1ccc2c(c1)N(CC(=O)N1CCN(c3ccccc3)CC1)C(=O)CO2`, the “% Inhibition” value is -8% and the Z score was 1.49.
The like results for `O=C(NCc1ccco1)c1nn[nH]c1Nc1cccc(F)c1` were, in that order, -19% and 3.11.
Take `CC(C#N)N1CCCC(NC(=O)OC(C)(C)C)C1` (stereo not given): the “% Inhibition” value is given as -13% and the Z score turned out to be 1.45.
On to `Cc1cc(CCNC(=O)c2cccs2)nn1C`, for which the “% Inhibition” value is -8% and the Z score turned out to be 1.61.
The like results for `COCCc1noc(-c2nc(-c3ccc(C)cc3)no2)n1` were, in that order, -10% and 1.57.
Regarding `O[C@@H](CNc1ccncc1Br)CN1CCOCC1`, the “% Inhibition” value is on record as -4% and the Z score turned out to be 0.68.
With `O=C(c1ccc(Br)o1)N1CCCCCCC1`, the “% Inhibition” value was found to be 1% and the Z score is reported as -0.16.
For `CCC(CC)C(=O)N1CCC2(CC1)Nc1ccc(C)c(C)c1-n1cccc12`, in that order: -13% and 1.76.
Regarding `CCOc1ccccc1NC(=O)C(=O)N1CCCN(C(C)C)CC1`, the “% Inhibition” value is -8% and the Z score was 0.79.
For the compound `O=C(Nc1ncc(Cc2ccccc2)s1)C1CC2CCC1C2` (stereo not given), the “% Inhibition” value was -6% and the Z score is reported as 0.86.
For `CCc1cc(N2CCN(C(=O)c3ccc(C)cc3)CC2)nc2nnc(C)n12`, in that order: -10% and 1.36.
In the case of `C=CCNC(=O)Nc1ccc(N2CCCN(Cc3cc(OC)cc(OC)c3)C2=O)cc1`, the “% Inhibition” value was -2% and the Z score is listed as 0.21.
The like results for `CCc1ccc(NC(=O)Cn2c(=O)n(CC)c(=O)c3sc(N4CCCC4)nc32)cc1` were, in that order, -21% and 1.84.
As to `Cc1cc(NC(=O)Cn2cc(-c3ncccc3C(=O)N(C)C)cn2)n(C)n1`, the “% Inhibition” value is on record as -7% and the Z score is given as 1.12.
Consider `Cc1noc(C)c1CN1C(=O)[C@@H]2CC[C@H]1CN(C(=O)CCn1cncn1)C2`, for which the “% Inhibition” value is 8% and the Z score is on record as -1.27.
As to `CC(C)C(=O)N1CCN(c2ccc(Br)cc2)C(=O)[C@@H]1C`, the “% Inhibition” value is reported as -12% and the Z score worked out at 1.14.
Take `CC(=O)NCc1ccc(Br)cc1Cl`: the “% Inhibition” value turned out to be 1% and the Z score is reported as -0.11.
As for `Cc1nc(C)n(C2CN(C(=O)c3cnc4sc(C)cn4c3=O)C2)n1`, the “% Inhibition” value is -12% and the Z score was 1.61.
`CC(C)C(C)(C)CNC(=O)NC1CCCC1CCO` (stereo not given): the “% Inhibition” value is given as -11% and the Z score came to 1.36.
On to `CCN(CC)c1nc2cc(C(=O)NCc3ccccc3)ccc2c(=O)n1Cc1ccccc1`, for which the “% Inhibition” value is listed as 1% and the Z score is recorded as -0.11.
With `O=C(COc1ccc(-c2ccccc2)cc1Cl)N1CCOCC1`, the “% Inhibition” value stood at 13% and the Z score was -1.65.
Turning to `O=C(N[C@H]1CCOC[C@@H]1Oc1cccc(F)c1)c1ccncc1Cl`, the “% Inhibition” value is -9% and the Z score came to 1.12.
The like results for `O=C(C[C@H]1COCCN1Cc1cn2ccccc2n1)c1ccco1` were, in that order, -7% and 1.25.
As for `Cc1ccc(-n2cccc2CC(=O)NCCCN2CCCCC2)cc1`, the “% Inhibition” value is listed as -6% and the Z score is 0.88.
Take `O=C(c1ccc2nncn2c1)N1CC(F)C1`: the “% Inhibition” value worked out at 13% and the Z score is reported as -2.32.
With `CN(Cc1noc(C2CC2)n1)OCc1ccccc1`, the “% Inhibition” value was -9% and the Z score stood at 1.28.
As to `COc1ccc(C2=Nc3nc4ccccc4n3/C2=N\O)cc1`, the “% Inhibition” value is listed as -13% and the Z score was 1.54.
For `COc1ccc(OC)c(NC(=O)[C@]2(C)CCCCC(=O)N2)c1`, in that order: -17% and 1.94.
As to `Cc1ccnc(-c2cnn([C@@H]3CCCCO3)n2)c1`, the “% Inhibition” value is -17% and the Z score stood at 2.29.
The like results for `CC[C@]1(C(=O)O)CCCN(Cc2cnc(-c3cccc(C)c3)nc2)C1` were, in that order, -17% and 2.24.
With `O=C(c1cccs1)N1CCN(Cc2ccc(-c3cccc(F)c3)s2)CC1`, the “% Inhibition” value is on record as 5% and the Z score is recorded as -0.43.
Turning to `CC[C@@H](CN(C)C)Nc1cc(C)nc2ccnn12`, the “% Inhibition” value is 3% and the Z score is reported as -0.65.
Take `Cn1cccc1-c1cc(-c2ncnn2CC(C)(C)O)[nH]n1`: the “% Inhibition” value was -18% and the Z score came to 1.7.
Regarding `Cn1cccc1[C@@H](O)CCNC(=O)Nc1cccs1`, the “% Inhibition” value is -11% and the Z score was determined as 1.64.
Consider `CCS(=O)(=O)Nc1ccc(C)n(CC(=O)NCc2c(C)cc(C)cc2C)c1=O`, for which the “% Inhibition” value was -14% and the Z score came out at 1.81.
Regarding `c1ccc(N2CCN(CN3CCCn4c(-c5cnccn5)nnc43)CC2)cc1`, the “% Inhibition” value turned out to be 1% and the Z score is reported as -0.23.
On to `CCn1cc(CNc2ccccc2CC(N)=O)cn1`, for which the “% Inhibition” value is -16% and the Z score worked out at 2.14.
With `O=C(NC1CCCCCCC1)c1c(Cl)cccc1Cl`, the “% Inhibition” value is on record as 3% and the Z score is listed as -0.4.
The like results for `O=C1CN(Cc2cnc(NCc3ccccc3)nc2)CCN1` were, in that order, 3% and -0.47.
